Data: a collection of fitness landscapes (doi:10.1126/science.1257360)
The other results are listed elsewhere or left out.

B1: PhoQ; a variant is named by its letters at X, in order, P23837 (parent)
chain: MKKLLRLFFPLSLRVRFLLATAAVVLVLSLAYGMVALIGYSVSFDKTTFRLLRGESNLFYTLAKWENNKLHVELPENIDKQSPTMTLIYDENGQLLWAQRDVPWLMKMIQPDWLKSNGFHEIEADVNDTSLLLSGDHSIQQQLQEVREDDDDAEMTHSVAVNVYPATSRMPKLTIVVVDTIPVELKSSYMVWSWFIYVLSANLLLVIPLLWVAAWWSLRPIEALAKEVRELEEHNRELLNPATTRELTSLVRNLNRLLKSERERYDKYRTTLTDLTHSLKTPLXXLQXXLRSLRSEKMSVSDAEPVMLEQISRISQQIGYYLHRASMRGGTLLSRELHPVAPLLDNLTSALNKVYQRKGVNISLDISPEISFVGEQNDFVEVMGNVLDNACKYCLEFVEISARQTDEHLYIVVEDDGPGIPLSKREVIFDRGQRVDTLRPGQGVGLAVAREITEQYEGKIVAGESMLGGARMEVIFGRQHSAPKDE

Variants of: B1
Assay: enrichment ratio after two sorts for PhoP signalling (ratio (wild type AVST 3.29)); higher = more functional
Conditions: with PhoP (E. coli)

Variant | enrichment ratio
VDHP | ≤ 0.25
FGLD | ≤ 0.25
YFEP | ≤ 0.25
DYCG | 2.23
DAAE | ≤ 0.25
LVWE | ≤ 0.25
HYGK | ≤ 0.25
QMMR | ≤ 0.25
WHRT | ≤ 0.25
VKVT | ≤ 0.25
MFWW | ≤ 0.25
HIYH | ≤ 0.25
LKEP | ≤ 0.25
YGKA | ≤ 0.25
MNTE | ≤ 0.25
HDET | ≤ 0.25
LRQE | ≤ 0.25
DDIF | ≤ 0.25
IWNI | ≤ 0.25
GCIY | ≤ 0.25
AARM | ≤ 0.25
RDRS | ≤ 0.25
MLKY | ≤ 0.25
DVSG | ≤ 0.25
EGPH | ≤ 0.25

Variant | enrichment ratio
YRPK | ≤ 0.25
IECR | ≤ 0.25
RKHG | ≤ 0.25
WSQP | ≤ 0.25
FNMS | ≤ 0.25
RAHY | 0.456
EYAV | ≤ 0.25
GKLV | 6.19
MRTM | 0.463
PWLI | ≤ 0.25
GDYW | ≤ 0.25
QEAM | ≤ 0.25
ALYS | ≤ 0.25
TLVD | ≤ 0.25
FRPY | ≤ 0.25
YFNR | ≤ 0.25
AVPF | ≤ 0.25
SDAC | 1.35
PELP | ≤ 0.25
IHHT | ≤ 0.25
SVPK | ≤ 0.25
KGNI | ≤ 0.25
AYMF | ≤ 0.25
GRVS | ≤ 0.25
SGKY | ≤ 0.25

Variant | enrichment ratio
NHER | ≤ 0.25
KLEP | ≤ 0.25
DNFE | ≤ 0.25
WRLW | ≤ 0.25
YYSH | ≤ 0.25
HPIQ | ≤ 0.25
ETEE | ≤ 0.25
WFWE | ≤ 0.25
YEGK | ≤ 0.25
WIVH | ≤ 0.25
ISHW | ≤ 0.25
EYYH | ≤ 0.25
RRMR | ≤ 0.25
RRIP | ≤ 0.25
FNIT | ≤ 0.25
LHFD | ≤ 0.25
SAQP | ≤ 0.25
TNQC | 7.02
TFCG | 5.19
KFPM | ≤ 0.25
TMTA | 11.2
RVTS | ≤ 0.25
PGWG | ≤ 0.25
MCHF | 6.32
PISL | ≤ 0.25

Variant | enrichment ratio
PTVG | ≤ 0.25
MGFA | 3.62
MSGD | ≤ 0.25
ISHG | ≤ 0.25
TFFE | ≤ 0.25
YFSE | ≤ 0.25
TTWW | ≤ 0.25
PRWA | ≤ 0.25
QIRD | ≤ 0.25
IALQ | 3.38
FKHR | ≤ 0.25
GECL | 5.03
KHIR | ≤ 0.25
FQLY | 3.42
TNVS | 0.527
KSLG | ≤ 0.25
KVPD | ≤ 0.25
PYDM | ≤ 0.25
LETR | ≤ 0.25
GIKL | ≤ 0.25
ERKV | ≤ 0.25
RQTS | ≤ 0.25
MGMN | ≤ 0.25
ILWN | ≤ 0.25
QMSC | ≤ 0.25

Variant | enrichment ratio
VRCN | ≤ 0.25
IIAG | ≤ 0.25
VIHH | ≤ 0.25
FYNW | ≤ 0.25
VGII | ≤ 0.25
ELIF | ≤ 0.25
RTID | ≤ 0.25
SYIG | 11.3
RYMN | ≤ 0.25
KGKY | ≤ 0.25
FPLN | ≤ 0.25
QPSG | ≤ 0.25
KEAA | ≤ 0.25
TPSF | ≤ 0.25
EARN | ≤ 0.25
TRQL | ≤ 0.25
YCGN | ≤ 0.25
HYVA | ≤ 0.25
SMYH | ≤ 0.25
TFVM | ≤ 0.25
VIRG | ≤ 0.25
SFDV | ≤ 0.25
ANDK | ≤ 0.25
HMAY | ≤ 0.25
PWKA | ≤ 0.25

Variant | enrichment ratio
TEYS | 11.9
GIRT | ≤ 0.25
VYHR | ≤ 0.25
NDFF | ≤ 0.25
SKCS | 6.51
KYWG | ≤ 0.25
HWLC | ≤ 0.25
YVIW | ≤ 0.25
YLSK | ≤ 0.25
NHDY | ≤ 0.25
TQGR | ≤ 0.25
KHKG | ≤ 0.25
FREW | ≤ 0.25
IPIT | ≤ 0.25
QNLS | ≤ 0.25
DLIQ | ≤ 0.25
LDEP | ≤ 0.25
VRIW | ≤ 0.25
ETDL | ≤ 0.25
TMWE | ≤ 0.25
SHAK | ≤ 0.25
SRLY | ≤ 0.25
FVWR | ≤ 0.25
NNVG | ≤ 0.25
WEYL | ≤ 0.25

Variant | enrichment ratio
LENY | ≤ 0.25
TVPL | 0.544
KGFF | ≤ 0.25
VYTR | ≤ 0.25
KSWF | ≤ 0.25
IHPF | ≤ 0.25
WTHI | ≤ 0.25
KIMY | ≤ 0.25
YVTK | ≤ 0.25
GKNI | ≤ 0.25
YRVD | ≤ 0.25
WLCK | ≤ 0.25
VVML | 0.689
FWCT | ≤ 0.25
QLVM | ≤ 0.25
DCSD | ≤ 0.25
ANRA | ≤ 0.25
MCCQ | 0.422
KLFF | ≤ 0.25
FAGR | ≤ 0.25
DGQS | ≤ 0.25
SADT | ≤ 0.25
RNAT | ≤ 0.25
HPDK | ≤ 0.25
HILG | ≤ 0.25

Variant | enrichment ratio
AEWY | 6.65
IDRR | ≤ 0.25
TYDA | ≤ 0.25
WYSS | ≤ 0.25
SHTI | 1.6
IPPL | ≤ 0.25
WIYI | ≤ 0.25
SYCK | ≤ 0.25
AMSC | 4.85
PPEC | ≤ 0.25
YNMD | ≤ 0.25
WDRV | ≤ 0.25
RGAS | ≤ 0.25
MVYN | 3.12
NTHD | ≤ 0.25
VIAQ | ≤ 0.25
ECGT | ≤ 0.25
TDEN | ≤ 0.25
TIWF | ≤ 0.25
SHTK | ≤ 0.25
